# Residue numbers refer to the chain shown, from its start. The list shows a part of the results.
# T1: RBFOX1 RRM (Homo sapiens, UniProt Q9NWB1 109-208)
# T1 sequence: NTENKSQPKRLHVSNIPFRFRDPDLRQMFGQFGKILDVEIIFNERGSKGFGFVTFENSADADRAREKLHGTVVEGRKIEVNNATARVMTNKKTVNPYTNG
# B1: AUUCUGA (DNA:RNA)
# RNA: GGGAGACCGGAAUUCAGAUUGUCCAUUCUGAUUAAAUCCCGUCGUAGCCACCA
# DNA 1: CAATCTGAATTCCGGTCTCCC
# DNA 2: TGGTGGCTACGACGGGATT
# B2: UGAGACA (DNA:RNA)
# RNA: B1 RNA with A25U, U26G, U27A, C28G, U29A, G30C
# DNA 1: CAATCTGAATTCCGGTCTCCC
# DNA 2: TGGTGGCTACGACGGGATT
# B3: UUUAUCU (DNA:RNA)
# RNA: B1 RNA with A25U, C28A, G30C, A31U
# DNA 1: CAATCTGAATTCCGGTCTCCC
# DNA 2: TGGTGGCTACGACGGGATT
# B4: AAGGUCU (DNA:RNA)
# RNA: B1 RNA with U26A, U27G, C28G, G30C, A31U
# DNA 1: CAATCTGAATTCCGGTCTCCC
# DNA 2: TGGTGGCTACGACGGGATT
# B5: CGCCAUC (DNA:RNA)
# RNA: B1 RNA with A25C, U26G, U27C, U29A, G30U, A31C
# DNA 1: CAATCTGAATTCCGGTCTCCC
# DNA 2: TGGTGGCTACGACGGGATT
# B6: AGUCGAA (DNA:RNA)
# RNA: B1 RNA with U26G, U29G, G30A
# DNA 1: CAATCTGAATTCCGGTCTCCC
# DNA 2: TGGTGGCTACGACGGGATT
# B7: UAGCCGA (DNA:RNA)
# RNA: B1 RNA with A25U, U26A, U27G, U29C
# DNA 1: CAATCTGAATTCCGGTCTCCC
# DNA 2: TGGTGGCTACGACGGGATT
# B8: ACUCAGC (DNA:RNA)
# RNA: B1 RNA with U26C, U29A, A31C
# DNA 1: CAATCTGAATTCCGGTCTCCC
# DNA 2: TGGTGGCTACGACGGGATT
# B9: CCUUGAG (DNA:RNA)
# RNA: B1 RNA with A25C, U26C, C28U, U29G, G30A, A31G
# DNA 1: CAATCTGAATTCCGGTCTCCC
# DNA 2: TGGTGGCTACGACGGGATT
# B10: GGGGCAG (DNA:RNA)
# RNA: GGGAGACCGGAAUUCAGAUUGUCCGGGGCAGUUAAAUCCCGUCGUAGCCACCA
# DNA 1: CAATCTGAATTCCGGTCTCCC
# DNA 2: TGGTGGCTACGACGGGATT
# B11: GGUAAAU (DNA:RNA)
# RNA: B10 RNA with G27U, G28A, C29A, G31U
# DNA 1: CAATCTGAATTCCGGTCTCCC
# DNA 2: TGGTGGCTACGACGGGATT
# B12: CGCGUGA (DNA:RNA)
# RNA: B1 RNA with A25C, U26G, U27C, C28G
# DNA 1: CAATCTGAATTCCGGTCTCCC
# DNA 2: TGGTGGCTACGACGGGATT
# B13: UAGACAG (DNA:RNA)
# RNA: B10 RNA with G25U, G26A, G28A
# DNA 1: CAATCTGAATTCCGGTCTCCC
# DNA 2: TGGTGGCTACGACGGGATT
# B14: CGCGAGG (DNA:RNA)
# RNA: B10 RNA with G25C, G27C, C29A, A30G
# DNA 1: CAATCTGAATTCCGGTCTCCC
# DNA 2: TGGTGGCTACGACGGGATT
# B15: GCUCAAC (DNA:RNA)
# RNA: B1 RNA with A25G, U26C, U29A, G30A, A31C
# DNA 1: CAATCTGAATTCCGGTCTCCC
# DNA 2: TGGTGGCTACGACGGGATT
# B16: GCGGCAC (DNA:RNA)
# RNA: B10 RNA with G26C, G31C
# DNA 1: CAATCTGAATTCCGGTCTCCC
# DNA 2: TGGTGGCTACGACGGGATT
# B17: GAUUGAC (DNA:RNA)
# RNA: B10 RNA with G26A, G27U, G28U, C29G, G31C
# DNA 1: CAATCTGAATTCCGGTCTCCC
# DNA 2: TGGTGGCTACGACGGGATT
# B18: GUCGCCU (DNA:RNA)
# RNA: B10 RNA with G26U, G27C, A30C, G31U
# DNA 1: CAATCTGAATTCCGGTCTCCC
# DNA 2: TGGTGGCTACGACGGGATT
# B19: CUCUUAC (DNA:RNA)
# RNA: B1 RNA with A25C, U27C, C28U, G30A, A31C
# DNA 1: CAATCTGAATTCCGGTCTCCC
# DNA 2: TGGTGGCTACGACGGGATT
# B20: UGUCUGC (DNA:RNA)
# RNA: B1 RNA with A25U, U26G, A31C
# DNA 1: CAATCTGAATTCCGGTCTCCC
# DNA 2: TGGTGGCTACGACGGGATT
# B21: AAUUUUU (DNA:RNA)
# RNA: B1 RNA with U26A, C28U, G30U, A31U
# DNA 1: CAATCTGAATTCCGGTCTCCC
# DNA 2: TGGTGGCTACGACGGGATT
# B22: AGCAUUG (DNA:RNA)
# RNA: B1 RNA with U26G, U27C, C28A, G30U, A31G
# DNA 1: CAATCTGAATTCCGGTCTCCC
# DNA 2: TGGTGGCTACGACGGGATT
# B23: ACCACCG (DNA:RNA)
# RNA: B10 RNA with G25A, G26C, G27C, G28A, A30C
# DNA 1: CAATCTGAATTCCGGTCTCCC
# DNA 2: TGGTGGCTACGACGGGATT
# B24: UUUGGGU (DNA:RNA)
# RNA: B1 RNA with A25U, C28G, U29G, A31U
# DNA 1: CAATCTGAATTCCGGTCTCCC
# DNA 2: TGGTGGCTACGACGGGATT
# B25: UAAACUA (DNA:RNA)
# RNA: B1 RNA with A25U, U26A, U27A, C28A, U29C, G30U
# DNA 1: CAATCTGAATTCCGGTCTCCC
# DNA 2: TGGTGGCTACGACGGGATT
# B26: AUUAAAG (DNA:RNA)
# RNA: B1 RNA with C28A, U29A, G30A, A31G
# DNA 1: CAATCTGAATTCCGGTCTCCC
# DNA 2: TGGTGGCTACGACGGGATT
# B27: CCAUGGG (DNA:RNA)
# RNA: B1 RNA with A25C, U26C, U27A, C28U, U29G, A31G
# DNA 1: CAATCTGAATTCCGGTCTCCC
# DNA 2: TGGTGGCTACGACGGGATT
# B28: GGACGCU (DNA:RNA)
# RNA: B10 RNA with G27A, G28C, C29G, A30C, G31U
# DNA 1: CAATCTGAATTCCGGTCTCCC
# DNA 2: TGGTGGCTACGACGGGATT
# B29: AACGAGU (DNA:RNA)
# RNA: B1 RNA with U26A, U27C, C28G, U29A, A31U
# DNA 1: CAATCTGAATTCCGGTCTCCC
# DNA 2: TGGTGGCTACGACGGGATT
# B30: AUACCUA (DNA:RNA)
# RNA: B1 RNA with U27A, U29C, G30U
# DNA 1: CAATCTGAATTCCGGTCTCCC
# DNA 2: TGGTGGCTACGACGGGATT
# B31: GAAUUUU (DNA:RNA)
# RNA: B1 RNA with A25G, U26A, U27A, C28U, G30U, A31U
# DNA 1: CAATCTGAATTCCGGTCTCCC
# DNA 2: TGGTGGCTACGACGGGATT
# Biological target: T1, RBFOX1 RRM
# Experiment: EMSA; HiTS-Eq, 1 nM pool, 10 min; buffer printed only for the single-RNA assays: 10 mM Tris pH 7.5, 150 mM NaCl, 3.4 mM EDTA, 0.001% NP-40, 30 C
# Details: tags: His6 N-terminal (pET28a); label: 5' 32P
# How it was run: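 Purified RbFox RRM, wild type or mutant, was incubated for 10 min in 50 µL with 1 nM of a 5′-radiolabelled RNA pool carrying 7 randomized nucleotides, whose flanks were annealed to DNA oligonucleotides, over a series of increasing protein concentrations. Unbound RNA was resolved on 8% native PAGE, cut out, reverse-transcribed, barcoded by PCR and sequenced on an Illumina HiSeq 2500. Relative association constants were derived from changes in read counts for each RNA species versus the control reaction and normalised to the cognate motif.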
row,Binder,binding signal
1,B1,0.0136 KA relative to UGCAUGU
2,B2,0.00824 KA relative to UGCAUGU
3,B3,0.00873 KA relative to UGCAUGU
4,B4,0.0111 KA relative to UGCAUGU
5,B5,0.00464 KA relative to UGCAUGU
6,B6,0.0116 KA relative to UGCAUGU
7,B7,0.0102 KA relative to UGCAUGU
8,B8,0.00534 KA relative to UGCAUGU
9,B9,0.0151 KA relative to UGCAUGU
10,B10,0.0491 KA relative to UGCAUGU
11,B11,0.0054 KA relative to UGCAUGU
12,B12,0.02 KA relative to UGCAUGU
13,B13,0.00818 KA relative to UGCAUGU
14,B14,0.00998 KA relative to UGCAUGU
15,B15,0.00455 KA relative to UGCAUGU
16,B16,0.0212 KA relative to UGCAUGU

row,Binder,binding signal
1,B17,0.0228 KA relative to UGCAUGU
2,B18,0.0142 KA relative to UGCAUGU
3,B19,0.00497 KA relative to UGCAUGU
4,B20,0.0316 KA relative to UGCAUGU
5,B21,0.0102 KA relative to UGCAUGU
6,B22,0.0104 KA relative to UGCAUGU
7,B23,0.000765 KA relative to UGCAUGU
8,B24,0.00647 KA relative to UGCAUGU
9,B25,0.00429 KA relative to UGCAUGU
10,B26,0.0014 KA relative to UGCAUGU
11,B27,0.00466 KA relative to UGCAUGU
12,B28,0.0229 KA relative to UGCAUGU
13,B29,0.00616 KA relative to UGCAUGU
14,B30,0.002 KA relative to UGCAUGU
15,B31,0.00914 KA relative to UGCAUGU

# Reference: PMC9911399, “Two distinct binding modes provide the RNA-binding protein RbFox with extraordinary sequence specificity”
